In all, about 390,000 compounds went through this assay and about 150 (0.038%) were called active. The shares of active, inactive and inconclusive entries below differ from those in the screen. The call rests on the fitted dose curve; in most records, active means well fitted inhibition curve with a large enough effect; inconclusive means small, poorly fitted or top-dose-only effect; inactive means no such curve, though single readings can be large or run the other way. Potencies of inconclusive entries are doubtful fits and often do not repeat.
Biological target: Regulator of G-protein signaling 4 (Homo sapiens) (UniProt P49798)
Assay: Inhibitors of Regulator of G Protein Signaling (RGS) 4: qHTS; further: nearly all actives have a fitted effect of over 75% in size
Details: Transcreener GDP fluorescence polarization, RGS4-accelerated GTP hydrolysis; series mostly up to 114 µM
Procedure, shortened: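 MLSMR compounds (23 nl, pin-transferred) preincubated 10 min at room temperature with a 500nM (2x) first reagent, then RGS4 at 900nM (2x) plus Transcreener GDP mix added; fluorescence polarization (620/688 nm) read before and after 90 min at 30 °C.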
Potency means the concentration at half of the fitted maximal effect; tags describe the fitted curve by direction and shape.

Sequence of UniProt P49798 (P49798 whole entry, looked up): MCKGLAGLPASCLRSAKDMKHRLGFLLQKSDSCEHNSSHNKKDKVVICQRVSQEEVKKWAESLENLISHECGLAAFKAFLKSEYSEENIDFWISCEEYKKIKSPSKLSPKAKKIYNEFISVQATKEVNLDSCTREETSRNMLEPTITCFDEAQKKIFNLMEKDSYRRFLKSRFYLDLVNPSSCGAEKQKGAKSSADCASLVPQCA

Row | SMILES | Potency
1 | CCCCCCCCCCC/C=C\C(C)(C)/C=C\CCCC(=O)O | inconclusive: 6.7 µM [inhibitor, full curve, poor fit]
2 | CCc1nnc(NS(=O)(=O)c2ccc(NC(=S)NC(=O)c3ccccc3)cc2)s1 | inconclusive: 79.4 µM [inhibitor, single point]
3 | CC(C)(C)c1ccc(C(=O)Nc2ccc(C=C(C#N)C#N)cc2)cc1 | inconclusive: 35.5 µM [inhibitor, partial curve, poor fit]
4 | COc1cccc(C(=O)NC(=S)Nn2cnnc2)c1OC | inconclusive: 17.8 µM [inhibitor, full curve, poor fit]
5 | Cc1c(C(=O)N2CCN(C3CCS(=O)(=O)C3)CC2)oc2c(F)cccc12 (centres undefined) | inconclusive: 100 µM [inhibitor, single point]
6 | CCOc1ccc(NC(=O)Cn2c(C)cc3ccccc3c2=O)cc1 | inactive
7 | Cc1ccc(NC(=O)Cn2c(=O)n(CCCCC(=O)NCc3ccccc3Cl)c(=O)c3ccccc32)cc1C | inactive
8 | Cc1ccc(Cl)cc1Nc1nc(-c2sc(NC(=O)c3ccco3)nc2C)cs1 | inconclusive: 28.2 µM [inhibitor, full curve, poor fit]
9 | COc1cc(Nc2ncc3c(n2)CCN(Cc2cc(Br)cs2)C3)cc(OC)c1 | inactive
10 | Cc1cc(=O)n2[nH]c(C(F)(F)F)c(-c3ccccc3)c2n1 | inactive
11 | O=C(O)c1ccccc1NC(=S)NC(=O)c1sc2ccccc2c1Cl | inconclusive: 31.6 µM [inhibitor, full curve, poor fit]
12 | O=C(NC1CCCCCC1)c1c(O)c2ccccc2[nH]c1=O | inactive
13 | CCOc1cc(/C=C2/C(=O)ON=C2C)ccc1OCc1ccc(F)cc1 | inconclusive: 17.8 µM [inhibitor, full curve, poor fit]
14 | Cn1c(=O)c2c(nc3n(-c4ccc(O)cc4)c(-c4ccc(Br)cc4)cn23)n(C)c1=O | inactive
15 | CCSc1nnc(NC(=O)c2ccc(Br)s2)s1 | inactive
16 | CCOC(=O)c1ccc(NS(=O)(=O)c2cc(-c3onc(C)c3C)ccc2C)cc1 | inactive
17 | Cc1nc2cc(N)ccc2n1-c1ccccc1 | inconclusive: 17.8 µM [inhibitor, full curve, poor fit]
18 | Cc1c(NS(=O)(=O)c2cccc3nsnc23)c(=O)n(-c2ccccc2)n1C | inconclusive: 89.1 µM [inhibitor, partial curve, poor fit]
19 | Oc1ccc2ccccc2c1C1Nc2cccc3cccc(c23)N1 | inconclusive: 89.1 µM [inhibitor, single point]
20 | O=CN1CCc2scc[n+]2-c2ccccc21 | inconclusive: 79.4 µM [inhibitor, partial curve, poor fit]
21 | O=C1C=CC2(C=C1)O[C@H](Cc1ccccc1)[C@@H](Cc1ccccc1)O2 | inconclusive: 44.7 µM [inhibitor, partial curve, poor fit]
22 | COc1ccccc1N(O)C1CC(=O)N(c2ccc(F)cc2)C1=O (centres undefined) | inconclusive: 56.2 µM [inhibitor, partial curve, poor fit]
23 | Cc1nc([N+](=O)[O-])nn1C12CC3CC(CC(Br)(C3)C1)C2 | inconclusive: 20 µM [inhibitor, full curve, poor fit]

Row | SMILES | Potency
24 | O=S1(=O)CCC(NS(=O)(=O)/C=C/c2ccccc2)C1 (centres undefined) | inactive
25 | CC(=O)N1CCN(C(=O)c2cc(S(=O)(=O)N(C)c3ccc(F)cc3)ccc2Cl)CC1 | inactive
26 | Cc1ccc(S(=O)(=O)CCC(=O)OCC(=O)c2ccc(F)cc2)cc1 | inconclusive: 89.1 µM [inhibitor, single point]
27 | CCCn1c(C)cc(/C=C(\C#N)C(=O)OCC(=O)N(C)c2c(N)n(Cc3ccccc3)c(=O)[nH]c2=O)c1C | inconclusive: 100 µM [inhibitor, single point]
28 | Oc1cccc2ccc(/C=C/c3cccs3)nc12 | inactive
29 | COc1ccc(OCC(=O)Nc2cc(-c3nc4ccccc4s3)ccc2C)cc1 | inconclusive: 100 µM [inhibitor, single point]
30 | O=C(NCCN1CCOCC1)c1cc(-c2ccc(Cl)c(Cl)c2)on1 | inactive
31 | OCc1cc(C(O)CNCCCCCCOCCCCc2ccccc2)ccc1O (centres undefined) | inconclusive: 37.7 µM [inhibitor, single point]
32 | CCC(C)Sc1oc(-c2ccco2)nc1S(=O)(=O)c1ccc(C)cc1 (centres undefined) | inactive
33 | COCCNC(=O)/C(C#N)=C/c1ccc(O)cc1 | inactive
34 | Nn1c(COc2ccc(Cl)cc2)nc2ccccc2c1=O | inactive
35 | COCCNC(=S)Nc1ccc(N2CCCCC2)cc1 | inconclusive: 100 µM [inhibitor, single point]
36 | CCOc1ccc(N2CC(O)Cn3c2nc2c3c(=O)n(CCCc3ccccc3)c(=O)n2C)cc1 (centres undefined) | inactive
37 | CNc1nc(=O)n(C2CCCO2)cc1C (centres undefined) | inconclusive: 89.1 µM [inhibitor, single point]
38 | OCCN1CCN(Cc2cc(Br)cc(Br)c2O)CC1 | inactive
39 | N#Cc1cnc2c(-c3ccccc3)c(-c3ccccc3)nn2c1N | inconclusive: 50.1 µM [inhibitor, partial curve, poor fit]
40 | O=C1CSC(=S)N1/N=C/c1cc(Br)c(O)c(Br)c1 | inconclusive: 79.4 µM [inhibitor, partial curve, poor fit]
41 | O=S(=O)(/N=C(/Sc1ccccc1)c1ccccc1)c1ccccc1 | inconclusive: 79.4 µM [inhibitor, single point]
42 | CC1=NN(c2ccc(Cl)c(C(=O)O)c2)C(=O)C1 | inconclusive: 50.1 µM [inhibitor, partial curve, poor fit]
43 | c1ccc(-c2cnc(CSc3ncnc4sccc34)o2)cc1 | inconclusive: 100 µM [inhibitor, partial curve, poor fit]
44 | O=C(CCCl)Nc1cccc2cccnc12 | inactive
45 | CC(C)(C)NCC(O)COc1ccccc1C(C)(C)C (centres undefined) | inactive
46 | CC(=O)Nc1ccc(NC(=O)c2ccc3c(c2)NC(=O)c2ccccc2S3)cc1 | inconclusive: 56.2 µM [inhibitor, partial curve, poor fit]

Row | SMILES | Potency
47 | Cc1ccc(S(=O)(=O)N(C)c2c(C)ccc(S(=O)(=O)N3CCN(C)CC3)c2C)cc1 | inconclusive: 100 µM [inhibitor, partial curve, poor fit]
48 | COc1ccc(-c2n[nH]c(=S)nc2-c2ccc(OC)cc2)cc1 | inconclusive: 10 µM [inhibitor, full curve, poor fit]
49 | O=S(=O)(c1ccc2nc(-c3ccco3)c(-c3ccco3)nc2c1)N1CCOCC1 | inconclusive: 100 µM [inhibitor, partial curve, poor fit]
50 | CCOC(=O)c1ccc(NC(=O)c2ccccc2[N+](=O)[O-])cc1 | inconclusive: 79.4 µM [inhibitor, partial curve, poor fit]
51 | CN(C)CCC(=O)c1cccc(Br)c1 | inconclusive: 10 µM [inhibitor, full curve, poor fit]
52 | Cc1cc(S(=O)(=O)N2CCN(c3c(C)cccc3C)CC2)ccc1F | inactive
53 | COc1cc(/C=C/C(=O)OCC(=O)N2c3ccccc3CC2C)cc(OC)c1OC (centres undefined) | inactive
54 | C#CCOc1ccc(/C=C2/C(=O)N(c3cccc(C(=O)O)c3)N=C2C)cc1OC | inconclusive: 50.1 µM [inhibitor, partial curve, poor fit]
55 | NC(=O)COC(=O)C12CC3CC(CC(O)(C3)C1)C2 | inconclusive: 79.4 µM [inhibitor, partial curve, poor fit]
56 | CCOC(=O)c1c(NC(=O)c2c(Br)cnn2CC)sc(C)c1C | inconclusive: 89.1 µM [inhibitor, partial curve, poor fit]
57 | Cc1ccc2ccc(C)[n+](CCCS(=O)(=O)[O-])c2c1 | inconclusive: 39.8 µM [inhibitor, partial curve, poor fit]
58 | CC1CCC(C(C)C)C(OC(=O)Cn2c(-c3ccc(Br)cc3)[n+](C)c3ccccc32)C1 (centres undefined) | inconclusive: 50.1 µM [inhibitor, partial curve, poor fit]
59 | O=C1/C(=C\c2ccccc2)CN(C(=O)CCN2CCCCC2)C/C1=C/c1ccccc1 | inactive
60 | CCNC(=S)NNC(=O)c1cc(-c2cccc(C)c2)nc2ccccc12 | inactive
61 | CCN(CC(=O)Nc1ccc(OC)cc1)C(=O)CSCC(=O)Nc1cc(C)on1 | inconclusive: 89.1 µM [inhibitor, single point]
62 | COc1ccc(NC(=O)c2cc(S(=O)(=O)N3CCCCCC3)cn2C)cc1Cl | inactive
63 | Oc1ccc2ccccc2c1CNc1ccccc1 | inconclusive: 50.1 µM [inhibitor, partial curve, poor fit]
64 | Cc1nc(Cl)c(C(=O)NC(C)(C)C)c(C)c1Cl | inconclusive: 89.1 µM [inhibitor, single point]
65 | COc1ccc(/C=C/C(=O)Nc2nc3n(n2)C(c2ccccc2)C=C(c2ccc(Cl)cc2)N3)cc1 (centres undefined) | inconclusive: 56.2 µM [inhibitor, partial curve, poor fit]
66 | Cc1cc(N2CCN(C)CC2)nc2ccc(NC(=O)c3cccnc3Cl)cc12 | inconclusive: 50.1 µM [inhibitor, partial curve, poor fit]
67 | CCc1nnc(NS(=O)(=O)c2ccc(NC(=S)NC(=O)/C=C/c3ccc(OC)cc3)cc2)s1 | inconclusive: 70.8 µM [inhibitor, single point]
68 | Nc1cc(=O)[nH]c(SCC(=O)Nc2ccc(Br)cc2)n1 | inconclusive: 39.8 µM [inhibitor, full curve, poor fit]
69 | O=C(c1cc2c(s1)CCCC2)N1CCN(Cc2ccc3c(c2)OCO3)CC1 | inactive

Reference: PubChem BioAssay AID504845 (National Center for Advancing Translational Sciences (NCATS), 2011)
